# Measurements from the supplement of paper PMC8183993.
# Counter-ions that a name gives are not always drawn. ± gives the standard deviation of the averaged measurements. Whole data set: some 3,200 compounds, median “nuclei count (viability) relative to DMSO” near 99, cut for the lowest 2% near 16. Some of the results follow.
# Tested on: U2OS
# Assay: nuclei count (viability) relative to DMSO (% of DMSO); higher = more viable cells
# Settings: 10 µM; 24 h
# Protocol: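 Primary image-based screen in U2OS cells: compounds at 10 uM for 24 h, then a 1 h o-propargyl-puromycin (OPP) pulse, click labelling, and high-throughput microscopy. Mean cytoplasmic OPP intensity and nuclei count were normalised to DMSO wells within each plate (DMSO = 100) and averaged over triplicate plates.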
row,SMILES,nuclei count
1,COc1cc(F)c(C(C)C)cc1-c1ccc(C(F)(F)F)cc1CN1C(=O)O[C@H](c2cc(C(F)(F)F)cc(C(F)(F)F)c2)[C@@H]1C [Anacetrapib (MK-0859)],96.6
2,CC[C@H]1OC(=O)[C@H](C)[C@@H](O[C@H]2C[C@@](C)(OC)[C@@H](O)[C@H](C)O2)[C@H](C)[C@@H](O[C@@H]2O[C@H](C)C[C@H](N(C)C)[C@H]2O)[C@](C)(O)C[C@@H](C)C(=O)[C@H](C)[C@@H](O)[C@]1(C)O [Erythromycin (E-Mycin)],98.4
3,CC[C@H]1OC(=O)[C@H](C)[C@@H](O[C@H]2C[C@@](C)(OC)[C@@H](O)[C@H](C)O2)[C@H](C)[C@@H](O[C@@H]2O[C@H](C)C[C@H](N(C)C)[C@H]2O)[C@](C)(O)C[C@@H](C)C(=O)[C@H](C)[C@@H](O)[C@]1(C)O [Erythromycin],109
4,O=C1c2ccccc2C(=O)C1c1ccccc1 [Phenindione],101
5,CC(C)[C@@H](C)/C=C/[C@@H](C)[C@H]1CC[C@H]2C3=CC=C4C[C@@H](O)CC[C@]4(C)[C@H]3CC[C@]12C [Ergosterol],103
6,O=C(c1cc(Cc2n[nH]c(=O)c3ccccc23)ccc1F)N1CCN(C(=O)C2CC2)CC1 [Olaparib (AZD2281)],85.3
7,O=C(c1cc(Cc2n[nH]c(=O)c3ccccc23)ccc1F)N1CCN(C(=O)C2CC2)CC1 [Olaparib],75.7
8,O=C(O)CCCc1c[nH]c2ccccc12 [3-Indolebutyric acid (IBA)],97.2
9,Clc1ccc2c(c1)C(N1CCNCC1)=Nc1ccccc1O2 [Amoxapine],92.8
10,O=C(O)CCc1nc(-c2ccccc2)c(-c2ccccc2)o1 [Oxaprozin],103
11,CCCCCCCCOC(=O)/C=C/c1ccc(O)c(O)c1 [n-Octyl caffeate],82
12,OCCN1CCN(CCCN2c3ccccc3Sc3ccc(C(F)(F)F)cc32)CC1 [Fluphenazine dihydrochloride],99.5
13,CC(C)(Oc1ccc(CCNC(=O)c2ccc(Cl)cc2)cc1)C(=O)O [Bezafibrate],99.2 ± 17
14,c1ccc(CC2=NCCN2)cc1 [Tolazoline hydrochloride],99.9
15,CC(C)C[C@H](NC(=O)[C@H](Cc1ccccc1)NC(=O)c1cnccn1)B(O)O [Bortezomib (Velcade)],7.65
16,O=C(OCCN1CCOCC1)C1(c2ccccc2)CCCCC1 [PRE-084 hydrochloride],101
17,COc1ccc(CC(C)NCC(O)c2ccc(O)c(NC=O)c2)cc1 (stereo not given) [Formoterol fumarate],104
18,COc1ccc(CC(C)NCC(O)c2ccc(O)c(NC=O)c2)cc1 (stereo not given) [Formoterol hemifumarate],95.5
19,CS(=O)(=O)c1ccc(C(=O)Nc2ccc(Cl)c(-c3ccccn3)c2)c(Cl)c1 [Vismodegib (GDC-0449)],96
20,COc1ccc(-c2coc3cc(O)ccc3c2=O)cc1 [Formononetin (Formononetol)],105
21,CN1CCN(S(=O)(=O)c2ccc(-c3cnc(N)c(C(=O)Nc4cccnc4)n3)cc2)CC1,98.9
22,CNc1nc(-c2ccc3c(N)n[nH]c3c2)cc(N2C[C@@H](C(=O)NC3CCCCC3)CC[C@H]2C)n1,72.5
23,CCOC(=O)N1CCC(=C2c3ccc(Cl)cc3CCc3cccnc32)CC1 [Loratidine],96
24,CCOC(=O)N1CCC(=C2c3ccc(Cl)cc3CCc3cccnc32)CC1 [Loratadine],94.4
25,CC(C)Cc1ccc(C(C)C(=O)NO)cc1 (stereo not given) [Ibuproxam],95.9

row,SMILES,nuclei count
1,Nc1nc(F)nc2c1ncn2[C@@H]1O[C@H](COP(=O)(O)O)[C@@H](O)[C@@H]1O [Fludarabine Phosphate (Fludara)],96.4
2,O=C(NOCC1CC1)c1ccc(F)c(F)c1Nc1ccc(I)cc1Cl,91.3
3,CC1(C)CCC(c2ccc(Cl)cc2)=C(CN2CCN(c3ccc(C(=O)NS(=O)(=O)c4ccc(N[C@H](CCN5CCOCC5)CSc5ccccc5)c(S(=O)(=O)C(F)(F)F)c4)cc3)CC2)C1 [ABT-263 (Navitoclax)],69.9
4,COc1[nH]c2ccc(F)cc2c1C(=O)OCC1CCN(CCNS(C)(=O)=O)CC1.NS(=O)(=O)O,103
5,COC(=O)[C@H](c1ccccc1Cl)N1CCc2sccc2C1 [Clopidogrel (Plavix)],103
6,C[C@]12CCC(=O)C=C1CC[C@@H]1[C@@H]2C(=O)C[C@@]2(C)[C@H]1CC[C@]2(O)C(=O)CO [Cortisone],94.3 ± 6.4
7,COCCCC/C(=N\OCCN)c1ccc(C(F)(F)F)cc1 [Fluvoxamine maleate],105 ± 4.9
8,CCCCC1CCC(c2nc(-c3ccncc3)no2)CC1 (stereo not given),96.5
9,O=C(Nc1cc(C(F)(F)F)cc(C(F)(F)F)c1)c1cc(Cl)ccc1O,78.7
10,CN(C)[C@@H]1C(O)=C(C(N)=O)C(=O)[C@@]2(O)C(O)=C3C(=O)c4c(O)cccc4[C@@](C)(O)[C@H]3C[C@@H]12 [Tetracycline hydrochloride],112
11,NC(=O)N1CCC(CC(=O)N2CCC([C@H]3c4ncc(Br)cc4CCc4cc(Cl)cc(Br)c43)CC2)CC1,75.9
12,C[C@H](N[C@@H](CCc1ccccc1)C(=O)O)C(=O)N1CCC[C@H]1C(=O)O [Enalaprilat dihydrate],94.3
13,O=C1N[C@H](C(=O)O)CS1 [Procysteine],106
14,COc1ccc(CN2C(=O)C(=O)c3cc(OC(F)(F)F)ccc32)cc1,17.3
15,Cc1nnc(C(=O)NC(C)(C)c2nc(C(=O)NCc3ccc(F)cc3)c(O)c(=O)n2C)o1 [Raltegravir (MK-0518)],101
16,c1ccc(NCc2ccc(CNc3ccccn3)cc2)nc1,107
17,O=C(O)c1cn(-c2ccc(F)cc2)c2cc(N3CCNCC3)c(F)cc2c1=O [Sarafloxacin],89.2
18,C[C@@H](NCc1cc(Br)cc2[nH]c(=O)c(=O)[nH]c12)P(=O)(O)O,99.8
19,CC[C@H](/C=C/[C@@H](C)[C@H]1CC[C@H]2[C@@H]3CC=C4C[C@@H](O)CC[C@]4(C)[C@H]3CC[C@]12C)C(C)C [Stigmasterol (Stigmasterin)],105
20,COc1cccc(/C=N/N=C/c2cccc(OC)c2)c1,102
21,O=C(NC[C@H]1CN(c2ccc(N3CCOCC3=O)cc2)C(=O)O1)c1ccc(Cl)s1 [Rivaroxaban (Xarelto)],109
22,O=C(O)c1ccc(O)c(O)c1 [Protocatechuic acid],102
23,C[C@@H]1C[C@H]2[C@@H]3C[C@H](F)C4=CC(=O)C=C[C@]4(C)[C@@]3(F)[C@@H](O)C[C@]2(C)[C@@]1(O)C(=O)CO [Flumethasone],113
24,Cc1cc2c(cc1CC(=O)c1sccc1S(=O)(=O)Nc1onc(C)c1Cl)OCO2,103
25,O=C(O)Cc1ccc(-c2ccccc2)cc1 [Felbinac],104

row,SMILES,nuclei count
1,N[C@H](C(=O)O)c1ccc(O)c(C(=O)O)c1 [(S)-3-Carboxy-4-hydroxyphenylglycine],106
2,C[C@@]1(C(=O)Nc2ccc(F)nc2)CCCN1c1nc(Nc2cc(C3CC3)n[nH]2)c2cccn2n1,39.4
3,Clc1ccc(CCC(Cn2ccnc2)Sc2c(Cl)cccc2Cl)cc1 (stereo not given) [Butoconazole nitrate],103
4,N#Cc1ccc(C(c2ccc(C#N)cc2)n2cncn2)cc1 [Letrozole],105
5,C[N+]1(C)CCC(OC(=O)C(O)(c2ccccc2)C2CCCC2)C1 (stereo not given) [Glycopyrrolate],109
6,O=C(Nc1cccc(Cl)c1)c1ccccn1,97.7
7,NCc1ccccc1CC(=O)N[C@@H]1C(=O)N2C(C(=O)O)=C(CSc3nnnn3CC(=O)O)CS[C@H]12 [Ceforanide],100
8,N=C(NCCCCCCNC(=N)NC(=N)Nc1ccc(Cl)cc1)NC(=N)Nc1ccc(Cl)cc1 [Chlorhexidine],75.6
9,COc1c2occc2cc2ccc(=O)oc12 [Methoxsalen (Oxsoralen)],101
10,COc1ccc2c(OCc3nnc4ccc(-c5ccccc5)nn34)ccnc2c1,110
11,CN1CCN(C2=Nc3ccccc3Oc3ccc(Cl)cc32)CC1 [Loxapine succinate],101
12,CCN(CC)CCOC(=O)C1(C2CCCCC2)CCCCC1 [Dicyclomine hydrochloride],102
13,CCCCC(O)c1ccccc1 (stereo not given) [Fenipentol],91.7
14,CC(N/C(=N\C#N)Nc1ccncc1)C(C)(C)C (stereo not given) [Pinacidil H2O],104
15,CC(N/C(=N\C#N)Nc1ccncc1)C(C)(C)C (stereo not given) [Pinacidil],100
16,CCCc1cc(C)[nH]c(=O)c1CNC(=O)c1cc(-c2ccc(N3CCN(C(C)C)CC3)nc2)cc2c1cnn2C(C)C,81.1
17,C[N+]1(C)CCC(OC(=O)C(c2ccccc2)c2ccccc2)CC1,106
18,NC(=O)c1ccc(N(C(N)=O)c2c(F)cccc2F)nc1-c1ccc(F)cc1F,104
19,"CC(=O)Oc1ccccc1C(=O)Nc1ncc([N+](=O)[O-])s1 [Nitazoxanide (Alinia, Annita)]",98.5
20,"O=Cc1c2[nH]c3ccccc3c2cc2[nH]c3ccccc3c12 [6-Formylindolo [3,2-B] carbazole]",89.3
21,CN(C)CCCN1c2ccccc2Sc2ccc(C(F)(F)F)cc21 [Triflupromazine hydrochloride],97.5
22,COc1ccc([C@@H]2CC(=O)c3c(O)cc(O)cc3O2)cc1O [Hesperetin],87
23,O/N=C/c1ccc(-c2ccc(O)c(F)c2)c(Cl)c1O,93.5
24,N=C(NC(=O)c1nc(Cl)c(N)nc1N)Nc1ccccc1 [Phenamil],93.3
25,COc1ccc2c(c1)CCC1C2CCC2(C)C(NCCCCCCN3C(=O)C=CC3=O)CCC12 (stereo not given),98.9
